The structures appear in SMILES notation. The campaign covered roughly 150,000 compounds. About 540 (0.36%) showed an effect of 50% or more. This is one part of the list.

The assay relates to Plasmodium falciparum. Description: Primary screen in NF54 nanoGlo assay, in single point, at 2uM, 72h; a lower Z score goes with more inhibition. Format: functional, Erythrocyte. The note with it: timepoint 72 hour.
Regarding `COCCn1ccnc1CNCCCc1ccccc1F`, the “% Inhibition” value was -9% and the Z score worked out at 1.16.

Regarding `Cc1nnc(N2CCC[C@@]3(C=Cc4ccccc4O3)C2)o1`, the “% Inhibition” value is on record as 0% and the Z score is -0.04.

Regarding `COc1ccc(N2C(=O)N[C@@H](CC(=O)N3CCC(c4ccccc4)CC3)C2=O)cc1`, the “% Inhibition” value is -14% and the Z score stood at 2.3.

Regarding `COc1ccccc1[C@@H]1CC(c2cccc(C)c2)=NN1C(=O)CN1CCC(C)CC1`, the “% Inhibition” value is listed as -11% and the Z score worked out at 2.14.

For the compound `O=C(c1ccc(Cl)c(S(=O)(=O)N2CCCCCC2)c1)N1CCC[C@H](C(F)(F)F)C1`, the “% Inhibition” value is recorded as 6% and the Z score is reported as -1.09.

With `COc1ccc(-c2cnn3c(C)cc(C)nc23)cc1S(=O)(=O)Nc1c(C)cc(C)cc1C`, the “% Inhibition” value is given as -11% and the Z score is on record as 1.08.

Take `CCC(C)S(=O)(=O)NC(=O)C1CC=CCC1` (centres undefined): the “% Inhibition” value worked out at 3% and the Z score is -0.42.

With `Cc1cc(C(=O)NCCCOC[C@H]2CCCO2)no1`, the “% Inhibition” value is listed as -13% and the Z score was 1.7.

As for `CCc1cc(-c2cccc(C(=O)N3C[C@@H]4CC[C@H](C3)C(=O)N4)c2)nc(C)n1`, the “% Inhibition” value is recorded as -4% and the Z score was determined as 0.67.

Regarding `COc1ccnc(N2CCC3(CCC(=O)N([C@H]4CC[C@H](O)CC4)C3)CC2)n1`, the “% Inhibition” value is listed as -7% and the Z score stood at 1.5.

In the case of `COCc1cc(Cl)ccc1NC(=O)NC12CC1COC2(C)C` (centres undefined), the “% Inhibition” value is -16% and the Z score was determined as 3.03.

As for `Cn1ncc(NC(=O)Cn2ccc3cc(-c4cccc5cccnc45)ccc32)n1`, the “% Inhibition” value was 3% and the Z score is on record as -0.64.

With `COc1ccc(N2CCN(C(=O)c3ccc4c(c3)OCO4)[C@@H](C)C2=O)c(OC)c1`, the “% Inhibition” value was -5% and the Z score is 0.58.

Turning to `Cc1nn(-c2ccc(F)cc2)c2nc(Cc3ccccc3)nc(N3CCCN(C(=O)c4cccc(Cl)c4)CC3)c12`, the “% Inhibition” value worked out at 0% and the Z score is 0.05.

As for `Cc1ccc(F)cc1C(=O)N1CC[C@H](N2CCN(C)CC2)[C@H](CCC(=O)O)C1`, the “% Inhibition” value is -6% and the Z score was found to be 1.13.

On to `COC1CCN(C2CCN(C(=O)Cc3ccc(Br)cc3)CC2)CC1`, for which the “% Inhibition” value was 1% and the Z score is recorded as -0.19.

Turning to `O=C(NCc1cccnc1)c1ccc2c(=O)n(-c3cccc(Cl)c3)cnc2c1`, the “% Inhibition” value was -1% and the Z score was determined as 0.18.

As to `CNC(=O)NCC(=O)Nc1ccc2nc(OC)sc2c1`, the “% Inhibition” value is reported as -6% and the Z score was 0.68.

As for `CN1CCC(NC(=O)N(C)[C@@H](c2ccccc2)c2ccccn2)CC1`, the “% Inhibition” value was found to be 6% and the Z score is recorded as -0.66.

Regarding `COC(=O)c1c(NC(=O)[C@@H]2CCCO2)c2cc(N)cnc2n1CCc1ccccc1`, the “% Inhibition” value was -1% and the Z score is on record as 0.08.

For the compound `CCC(C)c1cc(C(=O)Nc2ccnn2C(C)C2CC2)on1` (centres undefined), the “% Inhibition” value is reported as -9% and the Z score is on record as 1.34.

With `CC[C@@]1(CNCc2ccccc2)OCCc2ccccc21`, the “% Inhibition” value worked out at 13% and the Z score is listed as -2.32.

Take `CN(C)C(=O)CN(C)S(=O)(=O)c1c(Br)cc(C(=O)C(Cl)(Cl)Cl)n1C`: the “% Inhibition” value was -2% and the Z score is 0.14.

For `CCCOc1ccccc1C#Cc1ccc(=O)n(CCO)c1`, the “% Inhibition” value stood at 24% and the Z score is -3.08.

Regarding `Cc1cccc(C)c1C(=O)N1C[C@@H]2CN(C3CCCC3)C[C@]2(C(=O)O)C1`, the “% Inhibition” value was -9% and the Z score is on record as 1.41.

For the compound `Cc1nn(CC(=O)Nc2ccccc2)c(C)c1Cc1ccccc1`, the “% Inhibition” value is -12% and the Z score is 1.82.

For `O=C1CCN(C(=O)C2=CCCC2)CCN(c2nc3cc(Cl)cc(Cl)c3o2)CCN1`, the “% Inhibition” value is listed as -3% and the Z score is given as 0.48.

`Cc1[nH]c(C)c(S(=O)(=O)NCc2cccc(Cl)c2)c1-c1nnc(C2CC2)o1`: the “% Inhibition” value is listed as -20% and the Z score was 3.98.

On to `Cc1nn(CC(=O)N2[C@@H]3CC[C@H]2CNC(=O)C3)c(=O)n1Cc1ccccc1`, for which the “% Inhibition” value is reported as 4% and the Z score was -0.54.

Regarding `Cc1nn(-c2ccccc2)c(C)c1CN=C(N)N1CCCC1`, the “% Inhibition” value is reported as -4% and the Z score is 0.58.

Consider `Cc1[nH]c2c(c1C(=O)N[C@@H](C)Cn1cncn1)C(=O)CCC2`, for which the “% Inhibition” value is listed as -12% and the Z score stood at 1.71.

For `Cc1noc(C)c1Cn1nc2n(c1=O)C(=O)N(c1ccccc1)C2`, the “% Inhibition” value came out at 10% and the Z score is -1.23.

Take `CCCc1nc(C)c(CN2CC(=O)N3CC[C@@H](O)C[C@H]3C2=O)s1`: the “% Inhibition” value is listed as 3% and the Z score is -0.34.

As to `O=C(C[C@H]1C(=O)NCCN1Cc1ccc2ccccc2c1)NC1CCCCCC1`, the “% Inhibition” value is -4% and the Z score is listed as 0.69.

On to `CC1=C(C(=O)NC(C)(C)c2nc3ccccc3n2C)CCCO1`, for which the “% Inhibition” value was -2% and the Z score worked out at 0.23.

For `CC(C)N(CC(C)(C)O)C(=O)NCc1nnc(C(C)(C)C)s1`, the “% Inhibition” value is -4% and the Z score is given as 0.41.

On to `Cc1ccccc1CNC(=O)C1CCC(C(F)(F)F)NC1=O` (centres undefined), for which the “% Inhibition” value is given as -3% and the Z score worked out at 0.44.

As for `Cn1cc(C#N)cc1C(=O)OC1C2CCOC2C12CCC2` (centres undefined), the “% Inhibition” value is on record as 7% and the Z score is -1.15.

As to `Cc1nn(C(F)F)cc1S(=O)(=O)NCc1ccccc1N1CCC(C)CC1`, the “% Inhibition” value is reported as 4% and the Z score is -0.56.

On to `Nc1ccc(CC(=O)OC2CCCC2)cc1`, for which the “% Inhibition” value is given as 2% and the Z score is reported as -0.35.

For the compound `Cc1ccc2ncc(C(=O)N3CCC(C(F)F)CC3)c(=O)n2c1`, the “% Inhibition” value is -18% and the Z score was found to be 3.13.

In the case of `O=C1C[C@H](c2nc(C3CC3)nn2-c2ccccc2)c2ccccc21`, the “% Inhibition” value was 9% and the Z score is -1.53.

With `CCC(CC)C(=O)N1CCC(Oc2ccc(CN(C)Cc3cnn(C)c3)cc2)CC1`, the “% Inhibition” value is reported as -15% and the Z score turned out to be 1.96.

As to `O=S(=O)(NC1=NN2C(=NC(c3ccc(Cl)cc3)=C[C@H]2c2ccc(F)cc2)N1)c1ccccc1`, the “% Inhibition” value is -7% and the Z score is given as 0.73.

Take `CC[C@H](C)c1n[nH]c2c1CN(C(=O)CN1C(=O)c3ccccc3C1=O)CC2`: the “% Inhibition” value is reported as -11% and the Z score came out at 2.01.

As for `CC1(C(=O)NCc2ccc(F)cc2F)CCN(C(=O)CC2CCCC2)CC1`, the “% Inhibition” value is 32% and the Z score is -0.32.

As to `CC(C)O[C@@H](C)C(=O)NCc1cccc(Cl)c1F`, the “% Inhibition” value is -7% and the Z score was determined as 1.28.

Take `CCC[C@H]1CN(S(=O)(=O)C2CC2)C[C@@H]1Nc1cncc(C(N)=O)n1`: the “% Inhibition” value is on record as -7% and the Z score is on record as 1.16.

With `COc1ccc(CN2C(=O)c3cc4oc(C)cc4n3C[C@@]2(C)C(=O)NC2CCCCC2)cc1`, the “% Inhibition” value is 11% and the Z score was -2.04.

In the case of `CCOC(=O)c1cc(NC(=O)c2ccc3cc[nH]c3c2)[nH]n1`, the “% Inhibition” value was -1% and the Z score is 0.17.

`CCN1CCN(CC(=O)Nc2cc(C)no2)c2ccccc21`: the “% Inhibition” value is on record as -5% and the Z score worked out at 0.68.

On to `Cc1c(CC(N)=O)c2c(n1Cc1ccc(F)cc1)CCCC2=O`, for which the “% Inhibition” value is -13% and the Z score was found to be 1.37.

A word on the % Inhibition: it is the change of the read-out against control, counted positive when it falls.

These data come from ChEMBL document CHEMBL4888484, “Replenishing the malaria drug discovery pipeline: Screening and hit evaluation of the MMV Hit Generation Library 1 (HGL1) against asexual blood stage Plasmodium falciparum ,using a nano luciferase reporter read-out” (2022).
